{"source": "PubChem BioAssay AID504333", "about": "(National Center for Advancing Translational Sciences (NCATS), 2011)", "note": "Out of some 360,000 compounds screened, about 16,000 (4.4%) were called active. Inconclusive means that the source gave no clear call. Such entries were picked first, then a sample of the others. The call rests on the fitted dose curve; in most records, active means well fitted inhibition curve with a large enough effect; inconclusive means small, poorly fitted or top-dose-only effect; inactive means no such curve, though single readings can be large or run the other way. Potencies beside an inconclusive call are fits to weak or partial responses and may not hold up. On the % scale 0 is the no-effect control and ±100 the full control effect; potency means the concentration at half of the fitted maximal effect; tags describe the fitted curve by direction and shape.", "data": [{"target": "Bromodomain adjacent to zinc finger domain protein 2B (Homo sapiens) (UniProt Q9UIF8)", "sequence (Q9UIF8 whole entry, looked up, the tested form may be a part)": "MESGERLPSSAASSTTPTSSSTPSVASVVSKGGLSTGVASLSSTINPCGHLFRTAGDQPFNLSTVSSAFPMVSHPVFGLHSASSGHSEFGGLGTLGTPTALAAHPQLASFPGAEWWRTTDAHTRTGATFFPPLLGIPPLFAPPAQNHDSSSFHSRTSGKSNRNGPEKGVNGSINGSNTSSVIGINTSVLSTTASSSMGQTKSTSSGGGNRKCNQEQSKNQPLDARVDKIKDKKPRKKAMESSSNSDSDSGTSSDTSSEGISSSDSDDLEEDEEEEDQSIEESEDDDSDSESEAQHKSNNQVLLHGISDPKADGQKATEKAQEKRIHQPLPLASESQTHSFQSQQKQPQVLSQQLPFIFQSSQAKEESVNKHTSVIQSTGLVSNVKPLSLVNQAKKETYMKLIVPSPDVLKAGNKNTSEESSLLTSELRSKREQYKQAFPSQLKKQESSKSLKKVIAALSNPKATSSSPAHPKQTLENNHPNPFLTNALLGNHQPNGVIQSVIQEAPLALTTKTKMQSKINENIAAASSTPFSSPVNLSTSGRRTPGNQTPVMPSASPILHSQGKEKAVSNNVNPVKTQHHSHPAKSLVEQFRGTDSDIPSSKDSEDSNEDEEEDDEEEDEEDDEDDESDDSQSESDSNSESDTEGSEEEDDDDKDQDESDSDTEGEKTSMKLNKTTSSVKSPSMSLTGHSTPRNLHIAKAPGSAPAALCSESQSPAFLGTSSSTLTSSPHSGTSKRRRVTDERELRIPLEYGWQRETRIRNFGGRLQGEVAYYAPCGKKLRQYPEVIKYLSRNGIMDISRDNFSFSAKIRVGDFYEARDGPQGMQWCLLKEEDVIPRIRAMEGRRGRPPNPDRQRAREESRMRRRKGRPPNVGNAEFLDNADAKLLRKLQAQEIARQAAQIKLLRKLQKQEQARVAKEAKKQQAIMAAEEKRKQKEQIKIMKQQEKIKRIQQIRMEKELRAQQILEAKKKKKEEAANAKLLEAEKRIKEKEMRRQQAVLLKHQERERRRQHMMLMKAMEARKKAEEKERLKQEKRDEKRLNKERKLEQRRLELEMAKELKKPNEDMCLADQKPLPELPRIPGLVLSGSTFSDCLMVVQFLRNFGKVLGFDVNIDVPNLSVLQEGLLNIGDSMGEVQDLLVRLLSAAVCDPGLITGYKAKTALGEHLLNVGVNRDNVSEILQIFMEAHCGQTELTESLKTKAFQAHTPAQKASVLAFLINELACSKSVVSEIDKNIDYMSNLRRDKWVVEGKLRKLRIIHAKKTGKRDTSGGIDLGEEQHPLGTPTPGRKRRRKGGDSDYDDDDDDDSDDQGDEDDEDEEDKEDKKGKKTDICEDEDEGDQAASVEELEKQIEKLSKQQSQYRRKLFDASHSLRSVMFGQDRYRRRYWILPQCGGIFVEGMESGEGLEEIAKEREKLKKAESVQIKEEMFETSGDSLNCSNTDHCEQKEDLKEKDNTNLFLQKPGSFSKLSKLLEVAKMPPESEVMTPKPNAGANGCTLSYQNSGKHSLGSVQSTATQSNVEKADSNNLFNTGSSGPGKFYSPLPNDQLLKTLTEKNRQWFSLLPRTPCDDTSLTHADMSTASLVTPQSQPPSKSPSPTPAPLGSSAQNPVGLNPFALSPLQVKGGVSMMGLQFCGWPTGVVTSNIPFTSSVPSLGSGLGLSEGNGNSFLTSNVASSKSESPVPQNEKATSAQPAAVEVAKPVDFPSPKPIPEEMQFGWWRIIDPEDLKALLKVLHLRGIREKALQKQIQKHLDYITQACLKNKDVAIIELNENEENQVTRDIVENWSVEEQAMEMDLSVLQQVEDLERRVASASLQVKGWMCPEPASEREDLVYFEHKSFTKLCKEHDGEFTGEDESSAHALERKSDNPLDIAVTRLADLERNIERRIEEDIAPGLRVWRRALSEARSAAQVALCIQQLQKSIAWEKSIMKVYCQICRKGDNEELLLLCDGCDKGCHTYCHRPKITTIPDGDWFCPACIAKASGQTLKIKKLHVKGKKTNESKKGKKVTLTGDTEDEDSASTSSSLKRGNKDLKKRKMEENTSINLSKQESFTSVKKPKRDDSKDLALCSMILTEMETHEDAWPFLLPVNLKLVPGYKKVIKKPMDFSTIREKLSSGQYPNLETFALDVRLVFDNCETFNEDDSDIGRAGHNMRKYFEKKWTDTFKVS", "assay": "qHTS Assay for Inhibitors of BAZ2B; further: nearly all actives have a fitted effect of over 60% in size", "details": "AlphaScreen BAZ2B-H3K14Ac peptide displacement; activity change, negative = inhibition: at 114 µM (top of the series) unless noted", "in_short": "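AlphaScreen displacement of biotin-H3(5-23)K14Ac peptide (50 nM final) from BAZ2B (50 nM final) in PBS pH 7.4, 0.01% Tween-20; complex preformed 30 min RT, then compounds (top 110 uM) 30 min RT, beads 20 min dark.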", "values": [{"smiles": "CSc1ccc(S(=O)(=O)Nc2ccc(S(=O)(=O)Nc3ccc(C)cc3)cc2)cc1", "activity change, negative = inhibition": "inactive: -31%"}, {"smiles": "COc1ccc(C(=O)COC(=O)CN2C(=O)NC3(CC(C)CC(C)(C)C3)C2=O)c(OC)c1", "note": "(stereo not given)", "activity change, negative = inhibition": "inactive: -5.76%"}, {"smiles": "CCOC(=O)c1[nH]c2ccc(Br)cc2c1NC(=O)CCN1CCC(C)CC1", "activity change, negative = inhibition": "inactive: 11.9%"}, {"smiles": "CC1(OC(=O)CCc2ccccc2)C(=O)C=C2C=C(c3ccc(C#N)cc3)N(c3ccccc3)C=C2C1=O", "note": "(stereo not given)", "Potency": "inconclusive: 31.6 µM [inhibitor, partial curve]"}, {"smiles": "CC(=O)/C=C(\\C)Nc1ccc(-c2cnc(-c3ccccc3)o2)cc1", "Potency": "inconclusive: 50.1 µM [inhibitor, partial curve]"}, {"smiles": "COc1ccccc1C(=O)n1nc(-c2ccccc2)nc1NCc1ccc(Cl)cc1", "activity change, negative = inhibition": "inactive: 5.13%"}, {"smiles": "COC(=O)c1ccc(C(=O)O)nc1", "Potency": "active: 17.8 µM"}, {"smiles": "CCN(CC)CCC(=O)NN", "Potency": "inconclusive: 89.1 µM [inhibitor, single point]"}, {"smiles": "Cc1ccc(S(=O)(=O)c2nc(-c3ccccc3F)oc2N2CC(C)OC(C)C2)cc1", "note": "(stereo not given)", "Potency": "inconclusive: 44.7 µM [inhibitor, partial curve]"}, {"smiles": "OCCN(CC(O)Cn1ccc2ccccc21)CC(O)Cn1ccc2ccccc21", "note": "(stereo not given)", "Potency": "inconclusive: 44.7 µM [inhibitor, partial curve]"}, {"smiles": "COc1ccc(NC(=O)CN(C)C2CCS(=O)(=O)C2)cc1", "note": "(stereo not given)", "activity change, negative = inhibition": "inactive: 26.2%"}, {"smiles": "CC[n+]1c(C)n(-c2ccccc2)c2ccc(C(=O)OC)cc21", "Potency": "inconclusive: 79.4 µM [inhibitor, single point]"}, {"smiles": "Cc1ccc(N2C(=O)N3[C@H](c4ccc(F)cc4)[C@@H]4C(=O)N(C5CCCCC5)C(=O)[C@@H]4[C@]3(Cc3ccccc3)C2=O)cc1", "Potency": "inconclusive: 25.1 µM [inhibitor, single point]"}, {"smiles": "COc1ccc(OCC(O)Cn2c(=N)n(CCN3CCCCC3)c3ccccc32)cc1", "note": "(stereo not given)", "activity change, negative = inhibition": "inactive: -5.76%"}, {"smiles": "O=[N+]([O-])c1c(Nc2ccccn2)cc(Cl)c2nonc12", "Potency": "inconclusive: 25.1 µM [inhibitor, partial curve]"}, {"smiles": "Cc1ccc(-c2cc(-c3ccccc3)c(C#N)c(N)n2)o1", "Potency": "inconclusive: 89.1 µM [inhibitor, single point]"}, {"smiles": "Cc1ccc2c(c1)cc1c(=O)n(Cc3ccccc3Cl)nc(C)n12", "activity change, negative = inhibition": "inactive: 1.78%"}, {"smiles": "O=C(Cn1nc2ccccc2n1)N/N=C/c1cc(Cl)cc([N+](=O)[O-])c1O", "Potency": "active: 20 µM"}, {"smiles": "O=C(c1ccco1)N1CCN(C(c2ccccc2)c2nnnn2C2CCCC2)CC1", "note": "(stereo not given)", "Potency": "inconclusive: 89.1 µM [inhibitor, single point]"}, {"smiles": "C=CCSc1ncccc1C(=O)NCc1ccc(C)cc1", "Potency": "inconclusive: 70.8 µM [inhibitor, single point]"}]}]}
